Source: the BET-seq Pho4 binding data (Le et al. 2018)
Some of the results follow. These are noisy estimates, calculated here from bound and input reads.

Molecular target: T1, Pho4 (S. cerevisiae) (UniProt P07270)
T1 sequence: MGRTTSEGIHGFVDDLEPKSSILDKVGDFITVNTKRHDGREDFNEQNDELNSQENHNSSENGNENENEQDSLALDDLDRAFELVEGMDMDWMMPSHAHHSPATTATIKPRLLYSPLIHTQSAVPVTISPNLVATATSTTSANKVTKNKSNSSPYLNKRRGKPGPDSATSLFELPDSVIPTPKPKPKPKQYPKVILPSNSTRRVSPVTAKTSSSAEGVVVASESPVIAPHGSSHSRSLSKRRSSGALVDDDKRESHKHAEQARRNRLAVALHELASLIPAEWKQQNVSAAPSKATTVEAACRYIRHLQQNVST
Experiment: relative binding free energy (BET-seq); higher = weaker binding
Conditions: reference: library average

Sequence	relative binding free energy [kcal/mol]
ATGGTCACGTGCAAGT	0.12
GAATGCACGTGTGGCG	-0.1
TCCGGCACGTGGATGG	-0.1
TTGTACACGTGGCGGG	0.07
GGGCACACGTGGGGCT	-0.03
ATACTCACGTGTATGT	-0.02
CGATACACGTGGTGGT	0.09
GGTCTCACGTGATGAG	0.42
GACTACACGTGTGGGT	0.34
TAAGCCACGTGTATTT	0.15
CTAGTCACGTGGGATT	-0.1
GGAGCCACGTGTGGTA	-0.06
TTGTGCACGTGCTGCA	-0.06
AATGTCACGTGTATTA	0.08
GGGTCCACGTGGTGGA	-0.01
ATTCTCACGTGTGTGT	0.17
TTTGGCACGTGTTACA	-0.11
GTTGGCACGTGAATGA	0.27
TAGGGCACGTGTTTTA	-0.09
TAAGTCACGTGTGGAC	0.14
GGCGTCACGTGATGTT	0.39
GTGTTCACGTGCTTGG	0.17
TTGGACACGTGTTCTT	0.08

Sequence	relative binding free energy [kcal/mol]
ATTTTCACGTGGCCTT	0.28
ATGTACACGTGGGGGG	-0.07
TATAGCACGTGCTTGT	-0.3
TTCAACACGTGGGTTG	-0.13
TTTGGCACGTGGGGAG	-0.27
GGGCTCACGTGCGGAT	0.19
AGCAACACGTGTAGGG	0.04
TGTGACACGTGAGAGG	0.13
GGGGGCACGTGAGTAT	0.27
CGTCTCACGTGTGGTA	0.37
TTATACACGTGGGGAC	-0.13
CTTCGCACGTGGGATT	0.03
ATTGTCACGTGGTGAC	-0.05
ATATACACGTGAAGTT	0.19
GTTTGCACGTGTTGGA	0.1
AGGCGCACGTGGTGAG	-0.22
CGGGTCACGTGACGGA	0.33
ATTGACACGTGAGGCG	0.18
GGTGTCACGTGATGAT	0.27
ATAGTCACGTGGTTAG	-0.16
GGTGGCACGTGTAATC	0.31
CGGAACACGTGTTTGG	-0.06
TATATCACGTGCCGTT	0.18

Sequence	relative binding free energy [kcal/mol]
GGAGACACGTGAGGTG	0.3
CGGTTCACGTGGTATG	0.18
CTGTGCACGTGAGTTT	0.27
TAGGGCACGTGATGAT	0.01
GCTGTCACGTGGTGTA	0.02
TGAAGCACGTGGTAGG	-0.07
GATTTCACGTGGGGAT	0.24
CGAATCACGTGTGGTG	0.09
GTAGTCACGTGTTAGC	0.11
TTAGACACGTGGGGTC	-0.16
TTATGCACGTGAAGTA	0.13
GAAATCACGTGAGGGC	0.59
GAGTACACGTGAAGTT	0.43
ATTGTCACGTGATTTC	0.19
TTCTGCACGTGGATAG	0.12
TTTGGCACGTGATTCT	0.14
TATTACACGTGGTAGC	0.07
AATGGCACGTGATGAT	0.02
CGTGTCACGTGAGTTA	0.29
AGGTTCACGTGGATAG	0.3
GTGTCCACGTGCGATG	0.2
CAGGTCACGTGGCATG	0.02
TTAAGCACGTGTTAGA	0.02

Sequence	relative binding free energy [kcal/mol]
TGTAACACGTGCGGAT	-0.03
TTGGGCACGTGGGGCG	-0.19
TGTTTCACGTGAAATA	0.28
GATTCCACGTGGGGGA	0.01
TGGAACACGTGTGTCA	0.05
ACTGTCACGTGGGTAA	-0.08
AGCGTCACGTGAAGGA	0.41
TGGATCACGTGTTAGA	0.24
GGGTCCACGTGTGGAA	0.1
GGTTACACGTGGGGGC	0.16
CTGATCACGTGGGTGT	-0.06
GGGGGCACGTGGACCA	-0.07
TTACACACGTGGAGTG	-0.04
AGATGCACGTGTTTAA	0.07
ACGGGCACGTGTGTGG	-0.15
ATGTTCACGTGCTCGG	0.12
GGATTCACGTGTATTA	0.34
ACATGCACGTGGGTGC	-0.18
GGTTGCACGTGACAGT	0.14
TGGGGCACGTGCAAGA	-0.05
CGTTTCACGTGGGACG	0.1
GTTGTCACGTGGTTTA	0.13
TTTATCACGTGTATAT	0.2

Sequence	relative binding free energy [kcal/mol]
CCGTGCACGTGGTGAG	-0.01
GCGGGCACGTGTAGCG	-0.09
CATTTCACGTGTGGGC	0.57
GCGGGCACGTGGATGA	-0.08
CTCTTCACGTGGGGGC	0.27
TTTTGCACGTGGATGG	-0.01
AGCAGCACGTGAGGTT	0.16
TTTAACACGTGGTGTA	-0.12
GGATTCACGTGGGAAT	0.25
GTAATCACGTGAAGGG	0.33
CATGTCACGTGTGGGT	0.06
TGGCACACGTGACGGT	0.1
GATGTCACGTGGGCAA	0.1
TCGTTCACGTGACGGT	0.25
CAATGCACGTGGGAAT	0.12
TTATTCACGTGTCTTG	0.28
TGACTCACGTGTAAGG	0.34
AAAGGCACGTGGGATA	-0.09
GGGCTCACGTGGGGGC	0.07
ACGTACACGTGTGATG	0.24
CAGTTCACGTGAGGGA	0.37
GGAATCACGTGGGTCG	0.03
TTTGCCACGTGTTTTC	0.04
